Experimental data from PMC4336329 (PLoS ONE, 2015).
Hit rate of the full screen: of about 310,000 compounds, about 14,000 (4.5%) showed an effect of 50% or more. The effect is printed as a negative number. This is one part of the list.

The compounds below were run against human ether-à-go-go-related gene (hERG) potassium channel (human, UniProt Q12809) (assay: primary screen, population patch clamp on CHO cells stably expressing hERG).
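Also: peak tail current of the secondary pulse compared with the same well before compound.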

human ether-à-go-go-related gene (hERG) potassium channel, sequence (Q12809 whole entry, looked up): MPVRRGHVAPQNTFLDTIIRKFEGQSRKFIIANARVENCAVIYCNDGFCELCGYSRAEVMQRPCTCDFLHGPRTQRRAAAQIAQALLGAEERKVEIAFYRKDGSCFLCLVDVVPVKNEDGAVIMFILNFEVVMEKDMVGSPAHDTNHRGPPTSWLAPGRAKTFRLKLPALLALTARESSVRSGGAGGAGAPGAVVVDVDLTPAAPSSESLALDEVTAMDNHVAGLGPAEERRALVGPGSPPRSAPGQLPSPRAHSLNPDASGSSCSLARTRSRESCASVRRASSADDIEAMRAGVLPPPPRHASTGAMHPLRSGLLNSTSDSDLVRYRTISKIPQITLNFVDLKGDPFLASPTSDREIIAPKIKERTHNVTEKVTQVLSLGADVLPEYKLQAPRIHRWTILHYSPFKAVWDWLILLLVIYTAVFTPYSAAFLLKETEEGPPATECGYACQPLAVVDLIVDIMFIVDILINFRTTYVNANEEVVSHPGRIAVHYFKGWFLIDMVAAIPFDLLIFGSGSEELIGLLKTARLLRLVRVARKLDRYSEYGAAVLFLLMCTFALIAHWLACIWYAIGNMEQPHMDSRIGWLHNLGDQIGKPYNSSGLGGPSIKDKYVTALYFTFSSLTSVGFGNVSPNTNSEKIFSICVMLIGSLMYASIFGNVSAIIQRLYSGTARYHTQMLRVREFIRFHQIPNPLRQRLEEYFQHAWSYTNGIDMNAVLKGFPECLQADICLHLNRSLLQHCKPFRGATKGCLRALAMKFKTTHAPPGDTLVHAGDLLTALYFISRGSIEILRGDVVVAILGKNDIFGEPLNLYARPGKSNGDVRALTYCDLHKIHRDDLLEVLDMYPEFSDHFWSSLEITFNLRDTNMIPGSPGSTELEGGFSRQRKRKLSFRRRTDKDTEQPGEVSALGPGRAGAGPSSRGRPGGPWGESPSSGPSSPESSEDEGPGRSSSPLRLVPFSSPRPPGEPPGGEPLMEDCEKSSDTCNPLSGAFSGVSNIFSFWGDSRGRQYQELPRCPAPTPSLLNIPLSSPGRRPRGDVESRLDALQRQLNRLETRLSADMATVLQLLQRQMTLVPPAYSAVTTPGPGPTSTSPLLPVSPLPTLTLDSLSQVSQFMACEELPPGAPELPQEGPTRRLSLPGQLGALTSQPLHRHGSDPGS

SMILES | hERG current change (%, negative = inhibition) at 10uM [%]
O=C(c1ccco1)N1CCN(S(=O)(=O)c2ccc3[nH]c(=O)oc3c2)CC1 | -0.355
CSc1ccc(CN(C)C(C)C(=O)NCC2CCCCC2)cc1 (centres unmarked) | -32.1
O=C1C(Cl)=C(Nc2ccc3cn[nH]c3c2)C(=O)c2ccccc21 | 17.5
O=C(C1CC(=O)N(c2ccc3c(c2)OCCO3)C1)N1CCN(Cc2ccccc2)CC1 (centres unmarked) | 0.404
CCN(CC)C1=NS(=O)(=O)c2cc([N+](=O)[O-])ccc21 | -34.4
COC(=O)c1ccc(C)c(NC(=O)CCc2cc(OC)c(OC)c(OC)c2)c1 | -16
CN(C)CCCOC(=O)Cc1ccc(Cl)cc1.Cl | -15.7
Cc1c([N+](=O)[O-])cc(C(=O)Nc2ccc(Cc3ccncc3)cc2)cc1[N+](=O)[O-] | -33.7
CCOc1ccc(CCNC(=O)Cn2ccc3cc(S(=O)(=O)N4CCCC4)ccc32)cc1 | 7.21
NS(=O)(=O)c1cccc2cccnc12 | 9.97
O=C(NCc1ccco1)c1noc2c1CCCCC2 | 14.7
OCc1cn(-c2ccccc2)nc1-c1ccco1 | 12.3
COc1ccccc1N1CCN(S(=O)(=O)c2cn(C)nc2C)CC1 | -2.6
CCCCCn1c(N)c(-c2nc3ccccc3o2)c2c([N+](=O)[O-])nn(CC)c(=O)c21 | 7.69
CCn1cc([N+](=O)[O-])c(C(=O)Nc2ccc3c(c2)OCCO3)n1 | -9.69
CN(/N=C/c1cccc(Br)c1)C1=NS(=O)(=O)c2ccccc21 | -11.8
CCN=C1SC(CC(=O)NCc2ccccc2)C(=O)N1CC (centres unmarked) | 17.6
COc1ccc(CCNC(=O)C(=O)NCC2OCCN2S(=O)(=O)c2ccc(OC)c(C)c2)cc1 (centres unmarked) | -24.5
CCOC(=O)C1=C(COC(=O)CCC(=O)c2ccc(C)cc2)NC(=O)NC1C (centres unmarked) | 19.3
COc1ccc(N2CCN(C(=O)c3cc(=O)[nH]c4ccccc34)CC2)cc1 | -0.412
Cc1ccc(-n2nc3c(c2NC(=O)c2ccc(F)c(F)c2)CS(=O)(=O)C3)cc1 | -1.48
CCOc1ccccc1C1C(C#N)=C(N)Nc2onc(-c3ccccc3)c21 (centres unmarked) | 4.25
COc1cc(C(=O)N/N=C(\C)Cc2ccccc2)cc(OC)c1OC | 9.1

SMILES | hERG current change (%, negative = inhibition) at 10uM [%]
O=C(CN1CCN(c2ccc(Cl)cc2)CC1)c1ccccc1 | -6.33
CC(C)(C)c1ccc(NC(=O)C2CCCN(c3cnccn3)C2)cc1 (centres unmarked) | -9.72
Cc1ccc(S(=O)(=O)N2CCCCC2)cc1C(=O)Nc1ccccn1 | 14.5
CCn1c(SCc2nc3ccccc3[nH]2)nnc1-c1cnccn1 | -7.51
N/C(CC(=O)Nc1ccc(F)cc1)=N\O | -5.41
O=C(COC(=O)c1ccc(Cl)c([N+](=O)[O-])c1)NC1CCCC1 | 14.4
COc1ccc(N2C(=O)C3CCCN3C2c2cc(OC)c(OC)c(OC)c2)cc1 (centres unmarked) | -1.33
O=C(O)c1ccc(CSc2ccccn2)cc1 | 10.1
O=C(CSc1nnc(Cn2nnc3ccccc32)o1)Nc1cccc(Cl)c1 | 2.56
CSc1nnc(C)c(=O)n1COC(=O)COc1ccc(F)cc1 | -35.6
CCc1cc2c(=O)oc(-c3ccccc3F)nc2s1 | 12.1
COc1ccc(S(=O)(=O)NCc2ccc3c(c2)OCO3)cc1C | -18.5
Cc1cc(C)c(NC(=O)Nc2ccccc2)c(Cl)c1 | -7.39
O=C(NNS(=O)(=O)c1ccccc1[N+](=O)[O-])c1cccnc1 | -2.96
O=C(Nc1ccccn1)C(NS(=O)(=O)c1cccc2nsnc12)c1ccccc1 (centres unmarked) | -4.67
CC1(C)CC(=O)C(C=NC(CCC(N)=O)C(=O)O)=C(O)C1 (centres unmarked) | 0.668
Cc1cc(N/N=C/c2ccc(O)c(C)c2O)nc(-c2ccccc2O)n1 | 5.29
CSC1=N/C(=C\c2ccccc2)C(=O)N1C | -12.7
O=C(Nc1nnc(-c2ccccn2)o1)c1cccc(Cl)c1 | -0.458
COc1ccc(C)cc1NC(=O)NNC(=O)C1CCC(C(C)(C)C)CC1 (centres unmarked) | 11.8
CS(=O)(=O)c1ccc(Cl)c(NC(=O)CN2CCCC2c2ccc3c(c2)OCCCO3)c1 (centres unmarked) | -37.1
COc1ccc(CC(NC(C)=O)C(=O)NC2CCN(C(=O)c3ccc([N+](=O)[O-])cc3)CC2)cc1OC (centres unmarked) | 4.93
CN(C)S(=O)(=O)c1cc(NC(=O)CN2C(=O)NC3(CCCc4ccccc43)C2=O)ccc1Cl (centres unmarked) | -6

SMILES | hERG current change (%, negative = inhibition) at 10uM [%]
Cc1ccc(NS(=O)(=O)c2cccc(C(=O)N3CCCCCC3)c2)cc1 | -8.85
O=C(O)Cn1c(SCCOc2ccc(Cl)cc2)nc2ccccc21 | 20.8
Cc1n[nH]c(C)c1Cc1c(F)cccc1Cl | -1.32
COc1cc(-c2cc3nc(C)c(C)c(=O)n3[nH]2)cc(OC)c1OC | -34
CC1CCCC(NC(=O)c2ccncc2)C1C (centres unmarked) | 14.8
CC12CCC(c3c1nc1ccccc1[n+]3[O-])C2(C)C (centres unmarked) | -3.25
CCN(CC)S(=O)(=O)c1cccc(C(=O)Nc2ccc(C#N)cc2)c1 | -77.3
CC(C)c1ccccc1OCC(=O)NCC(c1cccs1)N1CCOCC1 (centres unmarked) | -50.2
COC(=O)CN1C(=O)[C@H]2[C@@H](c3ccc(C)o3)N3C(=O)CN(CC4CC4)C(=O)[C@@]3(Cc3ccccc3)[C@H]2C1=O | -18.5
CCOc1cccc(C(=O)Nc2ccc3oc(-c4cccnc4)nc3c2)c1 | -9.4
Cc1ccc2cc(CCl)c(Cl)nc2c1 | 3.34
CCOc1ccc2oc(-c3ccccc3)c(C(N)=O)c2c1 | 26.4
COc1ccc(OC)c(-c2csc(NC(=O)CSCC(=O)Nc3cc(C)on3)n2)c1 | 15
CCn1c(SCc2c(Cl)cccc2Cl)nc2nc3c(cc2c1=O)CCCC3 | -9.6
Cc1ccc(S(=O)(=O)N(C)c2ccc(OC(=O)c3ccc(N4CCCC4=O)cc3)cc2)cc1 | 14.7
CCN1CCN(Cc2cc3c(cc2[N+](=O)[O-])OCO3)CC1 | 7.4
O=c1[nH]c(Cn2nnc(-c3ccccc3)n2)nc2scc(-c3ccccc3)c12 | 6.27
CN1C(=O)C(=Cc2cn(CC#N)c3ccccc23)C(=O)N(C)C1=O | 19.8
Cc1ccn2cc(CCNC(=O)C3CCCCC3)nc2c1 | -23.5
CCOC(=O)CC(=O)c1cc(OC)c(OC)c(OC)c1 | -3.44
O=C(CCS(=O)(=O)c1cccc2nonc12)Nc1ccc(Br)cc1 | 7.91
FC(F)(F)c1cc(-c2cccs2)nc2cc(-c3cccs3)nn12 | 14.5
CCOC(=O)c1sc(NC(=O)c2ccc(=O)[nH]c2)nc1C | 9.75

SMILES | hERG current change (%, negative = inhibition) at 10uM [%]
CCN(c1ccccc1)S(=O)(=O)c1ccc(Cl)c(NC(=O)COC(=O)c2ccc(O)cc2)c1 | 6.44
COc1ccc(-c2c(-c3ccc(OC)c(C)c3O)n[nH]c2C)cc1 | 21.1
O=C1CSC(c2cccnc2)N1C1CCCCC1 (centres unmarked) | 8.35
CCN(CC)Cc1nc2c(c(=O)[nH]1)C(CC)(CC)Cc1ccccc1-2 | -6.25
COc1ccccc1-c1c(C)oc2cc(OC(=O)c3ccco3)ccc2c1=O | -0.156
CCOC(=O)c1ccc(N=c2sc(C(=O)OC)cc(=O)n2Cc2ccco2)cc1 | 13.7
O=C(COc1cccc2ccccc12)NNC(=O)C1CCCO1 (centres unmarked) | -0.0512
CCOC(=O)c1cnc2ccc(OCC)cc2c1N1CCN(C)CC1.Cl | -47.8
O=C(c1cc(COc2ccc(F)cc2Cl)on1)N1CCSCC1 | -4.58
Cc1ccc(C)c(N2CCN(S(=O)(=O)c3c(C)noc3C)CC2)c1 | 4.42
Cc1csc(-c2cnn(-c3ccccc3)c2NC(=O)c2cccc(C(F)(F)F)c2)n1 | 9.98
CC(=O)Oc1ccc2c(=O)c(-c3ccccc3)coc2c1 | 3.03
Cc1ccc2nc(SCC(=O)Nc3cc(C)on3)[nH]c2c1 | -3.32
CCO[C@@H]1OC(C(=O)NCc2ccccc2)=C[C@H](C2CC2)[C@H]1CCCO | -5.78
NC(=O)c1cccc(-c2noc(-c3ccccc3F)n2)c1 | 6.07
Cc1noc(C)c1-c1nnc(-c2ccc(OC(F)(F)F)cc2)o1 | -10.7
O=C(NC(=S)NCC1CCCO1)c1ccc(Br)o1 (centres unmarked) | 2.62
COc1ccc(-c2cc(C)no2)cc1S(=O)(=O)N(C)c1ccc(C)cc1 | -29.6
O=C(c1ccccc1)c1cc(F)c(N2CCOCC2)cc1Cl | -10.4
COCCn1c(SCC(=O)N2CCCCCC2)nc2c(c1=O)SCC2 | -19.9
